# Measured values: the supplement of paper PMC8728848
# Some of the results follow.
# B1: Gal 3 (Homo sapiens), P17931 (protein)
# chain: MADNFSLHDALSGSGNPNPQGWPGAWGNQPAGAGGYPGASYPGAYPGQAPPGAYPGQAPPGAYHGAPGAYPGAPAPGVYPGPPSGPGAYPSSGQPSAPGAYPATGPYGAPAGPLIVPYNLPLPGGVVPRMLITILGTVKPNANILDFQRGNDVAFHFNPRFNENNRRVIVCNTLLDNNWGREERQSVFPFESGKPFKIQVLVEPDHFKVAVNDAHLLQYNHRVKKLNEISKLGISGDIDLTSASYTMI
# Experiments:
# Experiment in all cases: glycan array binding signal (z-score within array); higher = stronger binding
# Conditions in all cases: glycan notation: IUPAC condensed, linker removed; mutation: K176L
# [1] = biological target: Fuc(a1-3)[Gal3S(b1-4)]GlcNAc
# In short: (§1)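 From the Consortium for Functional Glycomics database, 3228 arrays were curated, keeping only those whose protein sequence was available. Binding is given as a within-array Z-score averaged across arrays sharing a protein sequence and across linkers. Negative Z-scores can be read as non-binding.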
# [2] = biological target: Fuc(a1-3)[Gal3S(b1-4)]GlcNAc6S
# In short: as §1
# [3] = biological target: Fuc(a1-3)[GalNAc(b1-4)]GlcNAc
# In short: as §1
# Fuc(a1-4)GlcNAc = biological target: Fuc(a1-4)GlcNAc
# In short: as §1
# Fuc(b1-3)GlcNAc = biological target: Fuc(b1-3)GlcNAc
# In short: as §1
# Gal(a1-2)Gal = biological target: Gal(a1-2)Gal
# In short: as §1
# Gal(a1-3)Gal = biological target: Gal(a1-3)Gal
# In short: as §1
# Gal(a1-3)Gal(b1-3)GlcNAc = biological target: Gal(a1-3)Gal(b1-3)GlcNAc
# In short: as §1
# [4] = biological target: Gal(a1-3)Gal(b1-3)GlcNAc(b1-2)Man(a1-3)[Gal(a1-3)Gal(b1-3)GlcNAc(b1-2)Man(a1-6)]Man(b1-4)GlcNAc(b1-4)GlcNAc
# In short: as §1
# [5] = biological target: Gal(a1-3)Gal(b1-3)[Fuc(a1-4)]GlcNAc(b1-2)Man(a1-3)[Gal(a1-3)Gal(b1-3)[Fuc(a1-4)]GlcNAc(b1-2)Man(a1-6)]Man(b1-4)GlcNAc(b1-4)GlcNAc
# In short: as §1
# Gal(a1-3)Gal(b1-4)Glc = biological target: Gal(a1-3)Gal(b1-4)Glc
# In short: as §1
# Gal(a1-3)Gal(b1-4)GlcNAc = biological target: Gal(a1-3)Gal(b1-4)GlcNAc
# In short: as §1
# [6] = biological target: Gal(a1-3)Gal(b1-4)GlcNAc(b1-3)GalNAc
# In short: as §1
# [7] = biological target: Gal(a1-3)Gal(b1-4)[Fuc(a1-3)]GlcNAc
# In short: as §1
# [8] = biological target: Gal(a1-3)Gal(b1-4)[Fuc(a1-3)]GlcNAc(b1-2)Man(a1-3)[Gal(a1-3)Gal(b1-4)[Fuc(a1-3)]GlcNAc(b1-2)Man(a1-6)]Man(b1-4)GlcNAc(b1-4)GlcNAc
# In short: as §1
# Gal(a1-3)GalNAc = biological target: Gal(a1-3)GalNAc
# In short: as §1
# [9] = biological target: Gal(a1-3)[Gal(a1-4)]Gal(b1-4)GlcNAc
# In short: as §1
# [10] = biological target: Gal(a1-4)Gal(b1-3)GlcNAc(b1-2)Man(a1-3)[Gal(a1-4)Gal(b1-3)GlcNAc(b1-2)Man(a1-6)]Man(b1-4)GlcNAc(b1-4)GlcNAc
# In short: as §1
# Gal(a1-4)Gal(b1-4)Glc = biological target: Gal(a1-4)Gal(b1-4)Glc
# In short: as §1
# Gal(a1-4)Gal(b1-4)GlcNAc = biological target: Gal(a1-4)Gal(b1-4)GlcNAc
# In short: as §1
# [11] = biological target: Gal(a1-4)Gal(b1-4)GlcNAc(b1-2)Man(a1-3)[Gal(a1-4)Gal(b1-4)GlcNAc(b1-2)Man(a1-6)]Man(b1-4)GlcNAc(b1-4)GlcNAc
# In short: as §1
# [12] = biological target: Gal(a1-4)Gal(b1-4)GlcNAc(b1-3)Gal(b1-4)Glc
# In short: as §1
# Gal(a1-4)GlcNAc = biological target: Gal(a1-4)GlcNAc
# In short: as §1
# Gal(a1-6)Glc = biological target: Gal(a1-6)Glc
# In short: as §1
# Gal(b1-2)Gal = biological target: Gal(b1-2)Gal
# In short: as §1
# Gal(b1-3)Gal = biological target: Gal(b1-3)Gal
# In short: as §1
# Gal(b1-3)Gal(b1-4)GlcNAc = biological target: Gal(b1-3)Gal(b1-4)GlcNAc
# In short: as §1
# [13] = biological target: Gal(b1-3)Gal(b1-4)GlcNAc(b1-2)Man(a1-3)[Gal(b1-3)Gal(b1-4)GlcNAc(b1-2)Man(a1-6)]Man(b1-4)GlcNAc(b1-4)GlcNAc
# In short: as §1
# Gal(b1-3)GalNAc = biological target: Gal(b1-3)GalNAc
# In short: as §1
# [14] = biological target: Gal(b1-3)GalNAc(a1-3)[Fuc(a1-2)]Gal(b1-4)Glc
# In short: as §1
# [15] = biological target: Gal(b1-3)GalNAc(a1-3)[Fuc(a1-2)]Gal(b1-4)GlcNAc
# In short: as §1
# [16] = biological target: Gal(b1-3)GalNAc(b1-3)Gal(a1-4)Gal(b1-4)Glc
# In short: as §1
# [17] = biological target: Gal(b1-3)GalNAc(b1-4)Gal(b1-4)Glc
# In short: as §1
# [18] = biological target: Gal(b1-3)GalNAc(b1-4)[Neu5Ac(a2-3)]Gal(b1-4)Glc
# In short: as §1
# Gal(b1-3)GlcNAc = biological target: Gal(b1-3)GlcNAc
# In short: as §1
# [19] = biological target: Gal(b1-3)GlcNAc(a1-6)Gal(b1-4)GlcNAc
# In short: as §1
# [20] = biological target: Gal(b1-3)GlcNAc(b1-2)Man(a1-3)[Gal(b1-3)GlcNAc(b1-2)Man(a1-6)]Man(b1-4)GlcNAc(b1-4)GlcNAc
# In short: as §1
# [21] = biological target: Gal(b1-3)GlcNAc(b1-2)Man(a1-3)[Gal(b1-3)GlcNAc(b1-2)Man(a1-6)]Man(b1-4)GlcNAc(b1-4)[Fuc(a1-6)]GlcNAc
# In short: as §1
# [22] = biological target: Gal(b1-3)GlcNAc(b1-3)Gal(b1-3)GlcNAc
# In short: as §1
# [23] = biological target: Gal(b1-3)GlcNAc(b1-3)Gal(b1-4)Glc
# In short: as §1
# [24] = biological target: Gal(b1-3)GlcNAc(b1-3)Gal(b1-4)GlcNAc
# In short: as §1
# [25] = biological target: Gal(b1-3)GlcNAc(b1-3)Gal(b1-4)GlcNAc(b1-6)[Gal(b1-3)GlcNAc(b1-3)]Gal(b1-4)Glc
# In short: as §1
# [26] = biological target: Gal(b1-3)GlcNAc(b1-3)Gal(b1-4)[Fuc(a1-3)]GlcNAc(b1-6)[Gal(b1-3)GlcNAc(b1-3)]Gal(b1-4)Glc
# In short: as §1
# [27] = biological target: Gal(b1-3)GlcNAc(b1-3)GalNAc
# In short: as §1
# [28] = biological target: Gal(b1-3)GlcNAc(b1-6)Gal(b1-4)GlcNAc
# In short: as §1
# [29] = biological target: Gal(b1-3)[Fuc(a1-4)]GlcNAc
# In short: as §1
# [30] = biological target: Gal(b1-3)[Fuc(a1-4)]GlcNAc(b1-2)Man(a1-3)[Gal(b1-3)[Fuc(a1-4)]GlcNAc(b1-2)Man(a1-6)]Man(b1-4)GlcNAc(b1-4)GlcNAc
# In short: as §1
# [31] = biological target: Gal(b1-3)[Fuc(a1-4)]GlcNAc(b1-2)Man(a1-3)[Gal(b1-3)[Fuc(a1-4)]GlcNAc(b1-2)Man(a1-6)]Man(b1-4)GlcNAc(b1-4)[Fuc(a1-6)]GlcNAc
# In short: as §1
# [32] = biological target: Gal(b1-3)[Fuc(a1-4)]GlcNAc(b1-3)Gal(b1-3)[Fuc(a1-4)]GlcNAc
# In short: as §1
# [33] = biological target: Gal(b1-3)[Fuc(a1-4)]GlcNAc(b1-3)Gal(b1-4)GlcNAc
# In short: as §1
# [34] = biological target: Gal(b1-3)[Fuc(a1-4)]GlcNAc(b1-3)Gal(b1-4)[Fuc(a1-3)]GlcNAc
# In short: as §1
# [35] = biological target: Gal(b1-3)[GlcNAc(b1-6)]GalNAc
# In short: as §1
# [36] = biological target: Gal(b1-3)[Neu5Ac(a2-6)]GalNAc
# In short: as §1
# [37] = biological target: Gal(b1-3)[Neu5Ac(a2-6)]GlcNAc(b1-6)Gal(b1-4)Glc
# In short: as §1
# [38] = biological target: Gal(b1-3)[Neu5Ac(b2-6)]GalNAc
# In short: as §1
# [39] = biological target: Gal(b1-4)GalNAc(a1-3)[Fuc(a1-2)]Gal(b1-4)GlcNAc
# In short: as §1
# [40] = biological target: Gal(b1-4)GalNAc(b1-3)[Fuc(a1-2)]Gal(b1-4)GlcNAc
# In short: as §1
# Gal(b1-4)Glc = biological target: Gal(b1-4)Glc
# In short: as §1
# Gal(b1-4)Glc6S = biological target: Gal(b1-4)Glc6S
# In short: as §1
# Gal(b1-4)GlcNAc = biological target: Gal(b1-4)GlcNAc
# In short: as §1
binder,measurement,setting,value
B1,glycan array binding signal (z-score),[1],-0.265
same,glycan array binding signal (z-score),[2],-0.258
same,glycan array binding signal (z-score),[3],-0.262
same,glycan array binding signal (z-score),Fuc(a1-4)GlcNAc,-0.27
same,glycan array binding signal (z-score),Fuc(b1-3)GlcNAc,-0.262
same,glycan array binding signal (z-score),Gal(a1-2)Gal,-0.272
same,glycan array binding signal (z-score),Gal(a1-3)Gal,-0.266
same,glycan array binding signal (z-score),Gal(a1-3)Gal(b1-3)GlcNAc,-0.266
same,glycan array binding signal (z-score),[4],-0.266
same,glycan array binding signal (z-score),[5],-0.262
same,glycan array binding signal (z-score),Gal(a1-3)Gal(b1-4)Glc,-0.264
same,glycan array binding signal (z-score),Gal(a1-3)Gal(b1-4)GlcNAc,-0.272
same,glycan array binding signal (z-score),[6],-0.249
same,glycan array binding signal (z-score),[7],-0.271
same,glycan array binding signal (z-score),[8],-0.269
same,glycan array binding signal (z-score),Gal(a1-3)GalNAc,-0.267
same,glycan array binding signal (z-score),[9],-0.265
same,glycan array binding signal (z-score),[10],-0.258
same,glycan array binding signal (z-score),Gal(a1-4)Gal(b1-4)Glc,-0.267
same,glycan array binding signal (z-score),Gal(a1-4)Gal(b1-4)GlcNAc,-0.268
same,glycan array binding signal (z-score),[11],-0.268
same,glycan array binding signal (z-score),[12],-0.271
same,glycan array binding signal (z-score),Gal(a1-4)GlcNAc,-0.264
same,glycan array binding signal (z-score),Gal(a1-6)Glc,-0.269
same,glycan array binding signal (z-score),Gal(b1-2)Gal,-0.263
same,glycan array binding signal (z-score),Gal(b1-3)Gal,-0.269
same,glycan array binding signal (z-score),Gal(b1-3)Gal(b1-4)GlcNAc,-0.269
same,glycan array binding signal (z-score),[13],4.03
same,glycan array binding signal (z-score),Gal(b1-3)GalNAc,-0.269
same,glycan array binding signal (z-score),[14],-0.268
same,glycan array binding signal (z-score),[15],0.16
same,glycan array binding signal (z-score),[16],-0.262
same,glycan array binding signal (z-score),[17],-0.269
same,glycan array binding signal (z-score),[18],-0.27
same,glycan array binding signal (z-score),Gal(b1-3)GlcNAc,-0.267
same,glycan array binding signal (z-score),[19],-0.265
same,glycan array binding signal (z-score),[20],-0.252
same,glycan array binding signal (z-score),[21],-0.271
same,glycan array binding signal (z-score),[22],0.57
same,glycan array binding signal (z-score),[23],0.004
same,glycan array binding signal (z-score),[24],0.409
same,glycan array binding signal (z-score),[25],0.682
same,glycan array binding signal (z-score),[26],-0.203
same,glycan array binding signal (z-score),[27],-0.263
same,glycan array binding signal (z-score),[28],-0.267
same,glycan array binding signal (z-score),[29],-0.27
same,glycan array binding signal (z-score),[30],-0.25
same,glycan array binding signal (z-score),[31],-0.255
same,glycan array binding signal (z-score),[32],-0.263
same,glycan array binding signal (z-score),[33],-0.268
same,glycan array binding signal (z-score),[34],-0.273
same,glycan array binding signal (z-score),[35],-0.27
same,glycan array binding signal (z-score),[36],-0.268
same,glycan array binding signal (z-score),[37],-0.259
same,glycan array binding signal (z-score),[38],-0.268
same,glycan array binding signal (z-score),[39],1.11
same,glycan array binding signal (z-score),[40],-0.267
same,glycan array binding signal (z-score),Gal(b1-4)Glc,-0.269
same,glycan array binding signal (z-score),Gal(b1-4)Glc6S,-0.269
same,glycan array binding signal (z-score),Gal(b1-4)GlcNAc,-0.27
